Assay results: the supplement of paper PMC10126150
Sequences with one replicate were seen in a single cluster, so their values are uncertain.

System: ATP
Test: switch fluorescence ratio, 500 uM ATP over buffer (Cy3 cluster intensity, sum of 5 cycles each) (fold (ratio)); higher = stronger signal-on switching upon ATP binding; sequences stand for … in TCGTCGGCAGCGTCAGATGTGTATAAGAGACAGTTTTTTTTTTTTTTTTTTTTTTTTT…TC
Conditions: aptamer strand: ATP DNA aptamer (quencher-CACCTGGGGGAGTATTGCGGAGGAAGG + anchor), 100 nM annealed; ATP concentration: 500 uM; one replicate
How it was run: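 Exposure to 500 uM ATP lasted 15 min at 22 °C before imaging, and a selection-buffer image was taken beforehand, for Cy3-labelled switching-strand clusters on a modified Illumina MiSeq flow-cell annealed to 100 nM quencher-labelled ATP aptamer. Five buffer/ATP cycles were run with NaOH stripping and re-annealing between them. The fluorescence ratio per cluster is summed target-cycle over summed buffer-cycle Cy3 intensity, averaged per switch-domain sequence. Clusters outside 100-1000 RFU were excluded.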

Row | Sequence | switch fluorescence ratio
1 | TTGCGCCC | 1
2 | TTGCGCGCTG | 0.989
3 | TTGCGCTTTT | 1.07
4 | TTGCGGAAAT | 0.975
5 | TTGCGGAAGT | 0.994
6 | TTGCGGGTA | 1.01
7 | TTGCGGTTTG | 0.984
8 | TTGCGTCAGC | 0.952
9 | TTGCTAGGTG | 1.69
10 | TTGCTCCGAC | 2.26
11 | TTGCTCGCTA | 1.2
12 | TTGCTGAACG | 1
13 | TTGCTGGTAC | 1.06
14 | TTGCTGGTG | 1.03
15 | TTGCTTCGAG | 0.944
16 | TTGCTTTCAC | 0.997
17 | TTGCTTTGT | 0.976
18 | TTGCTTTTC | 1.03
19 | TTGGAAACG | 1.02
20 | TTGGACATTA | 1.04
21 | TTGGACGACT | 1.01
22 | TTGGAGATCT | 0.978
23 | TTGGAGATTC | 1
24 | TTGGAGCATT | 1.92
25 | TTGGAGCCTG | 1.01
26 | TTGGAGGCTG | 0.991

Row | Sequence | switch fluorescence ratio
27 | TTGGAGTAG | 1.24
28 | TTGGATATAC | 1.07
29 | TTGGATGAGT | 0.977
30 | TTGGATTGCC | 1.08
31 | TTGGCAGAGC | 1.05
32 | TTGGCATCC | 1.04
33 | TTGGCCAGCA | 1.02
34 | TTGGCGAAAT | 1.07
35 | TTGGCTAGTG | 0.968
36 | TTGGCTATCT | 0.964
37 | TTGGCTCAAA | 1.02
38 | TTGGCTGAGA | 1.02
39 | TTGGGAATAG | 1.03
40 | TTGGGATTAC | 1.03
41 | TTGGGCATAT | 1.01
42 | TTGGGCCTTC | 1.02
43 | TTGGGGCGTA | 0.958
44 | TTGGGGTTC | 1.05
45 | TTGGGTACAA | 1.02
46 | TTGGGTAGA | 1.02
47 | TTGGGTGCAT | 1.12
48 | TTGGGTGCT | 1.05
49 | TTGGTACGAG | 1.03
50 | TTGGTAGGCA | 0.999
51 | TTGGTATGCG | 0.93
52 | TTGGTCCCGT | 0.963

Row | Sequence | switch fluorescence ratio
53 | TTGGTCGCTC | 1.01
54 | TTGGTCTAGC | 1.03
55 | TTGGTCTCTC | 0.986
56 | TTGGTCTGAG | 0.953
57 | TTGGTCTTTA | 0.971
58 | TTGGTGCTA | 1
59 | TTGGTGGCAC | 1.03
60 | TTGGTGGGG | 0.991
61 | TTGGTGGTGT | 0.985
62 | TTGGTTCCTA | 1.02
63 | TTGGTTTGT | 0.979
64 | TTGTAAAAA | 1.05
65 | TTGTAAAACA | 0.941
66 | TTGTAACTAG | 1.01
67 | TTGTAATAGA | 1.76
68 | TTGTAATTTG | 1.01
69 | TTGTACTCAC | 1.19
70 | TTGTAGAATT | 1.01
71 | TTGTAGTATT | 0.975
72 | TTGTAGTGA | 1
73 | TTGTATCTTA | 0.963
74 | TTGTATGACT | 1.33
75 | TTGTATGCGC | 1.01
76 | TTGTATTTTC | 1.04
77 | TTGTCAATAG | 1.53
78 | TTGTCAGTAC | 1.57

Row | Sequence | switch fluorescence ratio
79 | TTGTCCAGCT | 0.977
80 | TTGTCCCAGG | 3.92
81 | TTGTCCGGCG | 0.971
82 | TTGTCCGGTG | 1.05
83 | TTGTCCTTG | 1.01
84 | TTGTCGAAAG | 0.969
85 | TTGTCGAACA | 1.1
86 | TTGTCGAATC | 1.09
87 | TTGTCGGGTC | 1
88 | TTGTCGTTCA | 1.02
89 | TTGTCTACAA | 0.989
90 | TTGTCTTGCC | 1.04
91 | TTGTGAAGTA | 0.976
92 | TTGTGACGTA | 0.957
93 | TTGTGACTCC | 1.09
94 | TTGTGATCAG | 1.01
95 | TTGTGATG | 0.95
96 | TTGTGCAGCT | 1.03
97 | TTGTGCTTCC | 1.49
98 | TTGTGGGCAT | 0.964
99 | TTGTGGGCCC | 1.01
100 | TTGTGGGTT | 0.979
101 | TTGTGTGAAC | 1
